# Laboratory results as given in the supplement of paper PMC12217912.
# The list shows a part of the results. Sequences were assembled here from the parent chain. Values near 0.05 are background.
# B1: TEV protease; numbered along this chain (parent)
# chain: MGESLFKGPRDYNPISSSICHLTNESDGHTTSLYGIGFGPFIITNKHLFRRNNGTLVVQSLHGVFKVKDTTTLQQHLVDGRDMIIIRMPKDFPPFPQKLKFREPQREERICLVTTNFQTKSMSSMVSDTSCTFPSGDGIFWKHWIQTKDGQCGSPLVSTRDGFIVGIHSASNFTNTNNYFTSVPKNFMELLTNQEAQQWVSGWRLNADSVLWGGHKVFMVKPEEPFQPVKEATQL
# Variants of: B1
# Assay: raw area under fraction-flipped curve 0-4 h after induction (AUC4h, not background-subtracted), DNA-recorder readout of cleavage of the substrate (dimensionless); higher = more cleavage of the substrate by the protease variant
# Conditions: temperature: 34 °C; time window: 0-4 h after rhamnose induction
# 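Also: Bxb1 expression induced with 0.2% (w/v) L-rhamnose at OD600 near 0.5, cultures sampled hourly, flipped fraction per protease–substrate barcode pair counted by paired-end Illumina sequencing.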
Variant,area with substrate ANLYFQS,area with substrate CNLYFQS,area with substrate DNLYFQS,area with substrate GNLYFQS,area with substrate HNLYFQS,area with substrate INLYFQS,area with substrate KNLYFQS,area with substrate LNLYFQS,area with substrate MNLYFQS,area with substrate PNLYFQS,area with substrate SNLYFQS,area with substrate TNLYFQS,area with substrate VNLYFQS,area with substrate WNLYFQS,area with substrate YNLYFQS,area with substrate QNLYFQS,area with substrate NNLYFQS,area with substrate RNLYFQS,area with substrate FNLYFQS
C20M,0.109,0.0672,0.0467,0.0657,0.0677,0.0545,0.0732,0.0666,0.065,0.0638,0.0702,0.064,0.072,0.0603,0.0656,–,–,–,–
F187I,0.0722,0.0862,0.0604,0.0732,0.0694,0.0421,0.171,0.057,–,0.0655,0.044,0.0765,0.0682,0.0636,–,0.066,–,–,–
G150K,0.0479,0.0648,0.0604,0.0493,0.0554,0.0766,–,0.0587,0.054,–,–,0.0461,0.0477,0.0561,0.0571,–,0.04,0.0602,–
K100E,0.0491,0.0635,0.0583,–,0.0578,0.056,–,–,0.0736,0.119,–,0.0542,–,0.062,–,–,0.0786,–,0.0519
N177A,0.0614,0.088,0.112,–,–,0.0698,0.0807,–,0.0808,0.0672,0.0571,0.0726,0.0719,0.0634,0.0891,0.0465,0.0704,–,0.059
S32H,0.0601,0.0911,0.0815,0.057,0.0675,0.0661,0.0592,0.051,0.074,0.0629,0.0736,0.0705,0.0691,0.0592,0.0621,0.065,0.0641,–,0.0594
R102T,0.0543,0.0415,0.0523,0.0575,0.0953,–,0.0535,–,0.0456,0.065,–,–,0.0896,0.0596,–,–,–,–,0.0427
L22K,0.0376,0.0228,0.0458,0.0549,0.0464,0.0375,0.0536,0.0549,0.0329,0.0487,–,0.0404,–,0.0506,0.0425,–,–,–,–
H47Y,0.0485,0.0578,0.0604,–,0.0649,0.0663,0.064,–,0.0662,0.055,0.0561,0.0567,0.0579,0.0728,0.047,–,0.0481,0.0674,0.0573
V220I,0.0899,0.0895,0.0895,–,0.0561,0.0779,–,0.074,0.0618,0.0611,0.064,0.0689,0.0648,0.0547,–,–,0.0954,–,0.0663
E107A,0.0749,0.0551,0.167,0.0652,0.0406,–,0.072,–,–,0.0715,0.0343,0.0656,0.0816,0.0685,–,–,0.0602,–,–
S135A,0.0702,0.0551,0.0709,0.0522,0.0584,0.0628,0.0544,0.0583,0.0584,0.0736,0.0447,0.0636,0.0702,0.0535,0.0802,0.0491,0.0678,–,0.0723
I36D,0.0365,0.0372,0.059,–,0.0424,0.0427,0.0491,0.0462,0.0459,0.0453,0.0385,0.037,0.0335,0.0409,0.0331,–,–,–,0.0399
R50D,0.0611,0.0623,0.0663,0.0614,0.0529,0.0512,0.0669,0.056,–,0.0683,0.0624,0.0693,–,–,0.0509,–,–,–,0.0663
P94G,0.0661,0.0809,0.109,0.0739,–,–,–,0.0775,0.072,0.0826,0.066,–,0.0866,0.0682,0.0763,–,0.0699,0.0449,–
L56V,0.0628,0.0453,0.0632,0.0556,0.0586,–,0.0773,0.0542,–,0.0576,–,0.0617,–,0.0498,0.102,–,0.0655,–,0.0504
M219E,0.0597,0.0591,0.0471,0.0517,0.061,0.0667,0.0616,0.0615,–,0.0613,0.057,0.0621,–,0.0527,0.0381,–,0.0627,–,0.0783
I42C,0.0455,0.0745,0.0836,0.0522,0.0634,0.0593,0.0589,0.0612,0.0645,–,0.0648,0.0672,0.0674,0.0605,0.0581,–,0.0583,–,0.0699
F92H,0.0524,0.0633,0.0764,0.0789,0.0637,0.0792,0.0771,0.0826,–,0.0739,–,–,–,–,0.0605,–,–,–,0.077
E107W,0.0623,0.0528,0.0688,–,0.0615,0.0609,0.058,–,0.0604,–,–,0.0641,–,0.0578,–,–,–,–,–
T55G,0.0526,0.065,0.0663,0.0717,0.048,0.0692,–,0.0565,0.067,0.0534,–,0.0808,0.0411,–,–,0.062,–,0.0639,0.059
V57G,0.0514,0.0638,0.0834,0.0623,0.0624,0.0649,–,0.0554,0.0427,0.0665,0.0384,0.0788,–,0.0609,–,–,–,–,0.0726
M219C,0.0614,0.0598,0.0778,–,–,0.0493,–,–,–,0.059,0.0616,–,0.0567,0.0637,–,–,–,–,–
F6H,0.0638,0.0678,0.0863,–,0.101,–,0.0618,–,–,–,0.0575,0.056,0.0446,0.0593,0.0545,–,0.0653,–,0.0708
K46P,0.0404,0.0542,0.0486,0.0976,0.0673,0.0635,0.0685,0.0627,0.036,0.046,0.0483,0.0575,0.0529,–,–,–,–,–,0.0515
R106F,0.0738,0.0587,0.0749,0.0652,0.0768,–,0.0649,0.064,0.0708,0.0624,0.0611,0.0635,0.0559,0.0562,0.057,–,–,–,0.0727
